Measurements from PubChem BioAssay AID2147 (National Center for Advancing Translational Sciences (NCATS), 2009).
Screen size: about 230,000 compounds; about 3,600 (1.6%) were called active. This list was built around the results that the source calls inconclusive (neither active nor inactive); the mix of calls is not that of the screen. Calls come from the whole dose curve; as a rule, active = well fitted inhibition curve with a large enough effect (not every such curve was filed as active); inconclusive = small, poorly fitted or top-dose-only effect, or another doubt; inactive = no such curve, though single readings can be large or run the other way. Potencies of inconclusive entries are doubtful fits and often do not repeat.
Note: nearly all actives have a fitted effect of over 50% in size.
Potency is the fitted concentration of half-maximal effect; tags give direction and shape of the fitted curve.

Each molecule was assayed against Lysine-specific demethylase 4E (Homo sapiens) (UniProt B2RXH2) (assay: qHTS Assay for Inhibitors of Human Jumonji Domain Containing 2E (JMJD2E)). Conditions: JMJD2E catalytic domain, FDH-coupled NADH fluorescence (FDH is formaldehyde dehydrogenase); series mostly up to 57.1 µM.
Sequence of UniProt B2RXH2 (B2RXH2 whole entry, looked up, the tested form may be a part): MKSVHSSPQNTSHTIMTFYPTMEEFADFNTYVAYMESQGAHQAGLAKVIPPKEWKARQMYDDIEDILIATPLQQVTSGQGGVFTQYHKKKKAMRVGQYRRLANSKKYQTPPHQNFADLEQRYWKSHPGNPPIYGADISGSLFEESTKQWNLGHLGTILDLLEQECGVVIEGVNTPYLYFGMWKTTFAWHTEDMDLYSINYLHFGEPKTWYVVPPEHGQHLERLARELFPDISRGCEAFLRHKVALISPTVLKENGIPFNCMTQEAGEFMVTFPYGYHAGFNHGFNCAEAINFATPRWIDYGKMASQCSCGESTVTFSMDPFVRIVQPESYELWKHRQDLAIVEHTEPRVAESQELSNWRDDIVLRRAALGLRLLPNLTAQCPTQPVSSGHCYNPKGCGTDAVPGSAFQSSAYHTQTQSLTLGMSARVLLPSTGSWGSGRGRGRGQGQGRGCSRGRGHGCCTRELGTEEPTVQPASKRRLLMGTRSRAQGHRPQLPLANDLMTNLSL
Description: Assay Provider: Structural Genomics Consortium [SGC] Screening Center PI: Austin, C.P. Screening Center: NIH Chemical Genomics Center [NCGC] The fine interplay among methylation states of several lysine residues on the tails of histone proteins is a major determinant of the transcriptional state of the associated DNA coding regions and is commonly referred to as the histone code. Histone lysine demethylases catalyze the removal of methyl groups from methylated lysine sidechains on histones H3 and H4, thus antagonizing the reactions catalyzed by histone lysine methyltransferases. […] In search for novel inhibitors of JMJD2E demethylase, a member of the largest set of histone demethylases belonging to the Fe(II) and 2-oxoglutarate oxygenase (2OG) superfamily, we performed a quantitative high-throughput screen (Inglese 2006) by using an assay which utilizes a trimethylated peptide substrate corresponding to a fragment of histone H3 (sequence ARKme3STGGK) with detection of the formaldehyde co-product in real time by a formaldehyde dehydrogenase (FDH) coupled reaction. FDH catalyzes oxidation of formaldehyde to formic acid with the concomitant reduction of the non-fluorescent beta-nicotinamide adenine dinucleotide hydrate (NAD+) cofactor to the fluorescent NADH co-product. References: Inglese, J., Auld, D., Jadhav, A., Johnson, R., Simeonov, A., Yasgar, A., Zheng, W. and Austin, C. Proc Natl Acad Sci USA 2006, 103, 11473-11478. N. R. Rose, S. S. Ng, J. Mecinovic, B. M. Lienard, S. H. Bello, Z. Sun, M. A. McDonough, U. Oppermann and C. J. Schofield, J Med Chem, 2008, 51, 7053-7056. Sakurai, M., Rose, N., Schultz, L., Quinn, A., Jadhav, A., Ng, S., Oppermann, U., Schofield, C.J. and Simeonov, A. Mol BioSystems 2009, in press. S. Michael, D. Auld, C. Klumpp, A. Jadhav, W. Zheng, N. Thorne, C. Austin, J. Inglese and A. Simeonov, Assay Drug Dev Technol, 2008, 6, 637-657.
Reagents and Controls: Ferrous ammonium sulfate, (+)-sodium L-ascorbate, beta-nicotinamide adenine dinucleotide hydrate (NAD+), Tween-20, formaldehyde dehydrogenase from P. putida (FDH), and disodium 2-oxoglutarate were from Sigma (St. Louis, MO). Black solid-bottom 384-well or 1,536-well assay plates were from Greiner Bio-One (Monroe, NC). Enzyme was supplied by Prof. Udo Oppermann, SGC-Oxford. The catalytic domain of human JMJD2E (residues 1-337) was produced as an N-terminally His6-tagged protein in E. coli, and purified by Ni-affinity chromatography and size-exclusion chromatography, and stored in HEPES 50 mM/ NaCl 500 mM pH 7.5, as reported in Rose 2008. The trimethylated histone peptide substrate ARK(me3)STGGK was synthesized and HPLC-purified by the Tufts University Core Facility (Boston, MA). Substrate solution (Sakurai 2009) contained 50 uM ARK(me3)STGGK, 0.00025 U/uL FDH, 50 uM 2-oxoglutarate, 250 uM NAD+, 1 mM ascorbate, and 10 uM ferrous ammonium sulfate. Controls and plate map: Buffer (150 mM HEPES pH 7.5 containing 0.01% Tween-20) in columns 3 and 4 as negative control (no enzyme) and 100 nM JMJD2E final concentration in columns 1,2, and 5-48. Assay Steps: Enzyme and buffer solutions (3 uL) were dispensed into a 1,536-well Greiner black solid-bottom assay plate. The library compounds (23 nL) were transferred using a Kalypsys pintool equipped with 1,536-pin array. The plate was incubated at room temperature (15 min), and then a 1 uL aliquot of substrate solution was added to initiate the reaction. The plate was transferred to ViewLux imager where an initial reading using standard UV optics (Ex 340 nm, Em 450 nm) was obtained. The plate was then removed from the reader, incubated for 30 minutes at room temperature, and returned to the reader for a second fluorescence reading. A fully automated robotic screening system (Kalypsys Inc, San diego, CA) was used to perform the above steps as described previously (Michael 2008). […]
For CNC(=O)COC(=O)c1ccc(-c2nc3ccccc3s2)s1, the Potency was inconclusive: 7.94 µM [inhibitor, full curve]. For CN1Cc2c(c(C#N)c(N)n(C)c2=S)CC1(C)C, the Potency was inconclusive: 28.2 µM [inhibitor, partial curve]. With O=C1NC(=O)N(c2ccccc2)C(=O)/C1=C\c1ccc([N+](=O)[O-])o1 the Potency was inconclusive: 25.1 µM [inhibitor, single point]. With O=C(c1csc2c1CCCCC2)N1CCC2(CC1)OCCO2 the Potency was “inactive”. For COc1cc2[nH]c(=O)n(-c3ccc(C)cc3)c(=O)c2cc1OC, the Potency was inconclusive: 28.2 µM [inhibitor, partial curve]. For C[N+](C)(C)Cc1ccccc1, the Potency was inconclusive: 39.8 µM [inhibitor, single point]. For OC12ONC(c3ccccn3)C1N1CCC2CC1 (stereo unspecified), the Potency was “inactive”. For O=C1NC(=O)N(Cc2ccccc2)C(=O)/C1=C\N1CCCc2ccccc21, the Potency was “inactive”. COc1cc2[nH]c(=O)n(-c3cccc(Cl)c3)c(=O)c2cc1OC was tested, and the Potency was inconclusive: 14.1 µM [inhibitor, partial curve]. In the case of CC(C)[N+](C)(C)CC#CC(O)(c1ccccc1)c1ccccc1, the Potency is reported as inconclusive: 31.6 µM [inhibitor, single point]. With CC[N+](CC)(CC)CC the Potency was inconclusive: 25.1 µM [inhibitor, single point]. O=C(O[C@@H]1Cc2c(O)cc(O)cc2O[C@@H]1c1cc(O)c(O)c(O)c1)c1cc(O)c(O)c(O)c1 was tested, and the Potency was active: 8.91 µM. In the case of CC[C@H]1CN2CCc3cc(OC)c(OC)cc3[C@@H]2C[C@@H]1C[C@H]1NCCc2cc(OC)c(OC)cc21, the Potency is reported as inconclusive: 5.01 µM [inhibitor, full curve, poor fit]. With COc1ccc(-c2nc3ccccc3c(=O)n2-c2ccc(OC)cc2)cc1 the Potency was “inactive”. In the case of N#Cc1c(/N=C/c2ccc(O)cc2O)sc2c1C1CCN2CC1, the Potency is reported as inconclusive: 35.5 µM [inhibitor, single point]. With Cn1c(NN=O)nc2ccccc21 the Potency was “inactive”. CC(C)c1cc2c(c(O)c1O)[C@]1(C(=O)O)CCCC(C)(C)C1CC2 (stereo partly specified) was tested, and the Potency was active: 12.6 µM. O=c1[nH]c(O)c(C=Nc2ccccc2Sc2ccccc2)c(=O)[nH]1 was tested, and the Potency was inconclusive: 31.6 µM [inhibitor, partial curve]. CCCCn1c(NC(=O)c2ccc(Br)o2)c(C(=O)OCC)c2nc3ccccc3nc21 was tested, and the Potency was inconclusive: 8.91 µM [inhibitor, partial curve]. In the case of COc1ccc(N2C(=O)CC(=O)NC2=O)cc1, the Potency is reported as “inactive”. In the case of Cn1c(SCc2nc3cc(C(=O)O)ccc3c(=O)[nH]2)nnc1C(F)(F)F, the Potency is reported as inconclusive: 28.2 µM [inhibitor, single point]. In the case of CCOP(=O)(c1ccccc1)c1nc(-c2ccc(F)cc2)oc1N1CCCCC1 (stereo unspecified), the Potency is reported as inconclusive: 35.5 µM [inhibitor, single point]. In the case of CC(=O)OCC1=C(C(=O)O)N2C(=O)[C@@H](N)[C@@H]2SC1, the Potency is reported as inconclusive: 14.1 µM [inhibitor, partial curve]. In the case of Cc1cccn2c(=O)c3c(nc12)N1CCC(Cc2ccccc2)CC1C1(C3)C(=O)N(C)C(=O)N(C)C1=O (stereo unspecified), the Potency is reported as inconclusive: 25.1 µM [inhibitor, partial curve]. In the case of COc1ccc(Cn2c(O)c(/C=N/NC(=O)c3ccncc3)c(=O)[nH]c2=O)cc1, the Potency is reported as active: 7.94 µM. With Cn1c2ccccc2c2c(C(=O)N3CCC4(CC3)OCCO4)cn(C3CCCCC3)c(=O)c21 the Potency was inconclusive: 31.6 µM [inhibitor, partial curve]. Cc1ccc(C(=O)n2c(N)nc3ccccc32)cc1 was tested, and the Potency was active: 35.5 µM. With CC1(C)CC(N(CCc2ccccc2)Cc2ccccc2)CCO1 (stereo unspecified) the Potency was inconclusive: 39.8 µM [inhibitor, single point]. In the case of C[C@H](N)Cc1c[nH]c2ccc(OCc3cccs3)cc12, the Potency is reported as “inactive”. For CC(=O)OCC1=C(C(=O)O)N2C(=O)C(NC(=O)CCCC(N)C(=O)O)C2SC1 (stereo unspecified), the Potency was active: 8.91 µM. COc1ccccc1CNCc1cc(OC)c(OC)cc1OC was tested, and the Potency was inconclusive: 25.1 µM [inhibitor, single point]. In the case of COCCOC(=O)c1c(N)n(Cc2ccc(OC)cc2)c2nc3ccccc3nc12, the Potency is reported as inconclusive: 28.2 µM [inhibitor, partial curve]. Cc1ccc2c(c1)=NC(=O)/C(=C/c1c(O)[nH]c(=O)[nH]c1=O)C=2 was tested, and the Potency was inconclusive: 31.6 µM [inhibitor, partial curve]. For O=C1C2CCCN2C(c2ccc(Cl)cc2)N1c1ccccn1 (stereo unspecified), the Potency was inconclusive: 35.5 µM [inhibitor, single point]. In the case of Cc1cccc(N2C(=O)NC(=O)/C(=C\c3cccn3-c3ccc(Cl)cc3)C2=O)c1, the Potency is reported as “inactive”. For C=C1C(=O)O[C@H]2C[C@@H](C)[C@@H]3C=CC(=O)[C@@]3(C)C[C@H]12, the Potency was “inactive”. With Cc1ccccc1CN1CCN(C(=O)Cc2ccccc2)CC1 the Potency was inconclusive: 31.6 µM [inhibitor, single point]. With O=C1NS(=O)c2cc([N+](=O)[O-])cc([N+](=O)[O-])c21 (stereo unspecified) the Potency was inconclusive: 20 µM [inhibitor, partial curve, poor fit]. COc1cccc(N=Nc2c(O)[nH]c(=S)[nH]c2=O)c1 was tested, and the Potency was “inactive”. In the case of COc1ccc2c(CN3CC=C(c4ccccc4)CC3)cc(=O)oc2c1, the Potency is reported as inconclusive: 28.2 µM [inhibitor, partial curve]. For COc1cccc(C(C#N)N2CCCCC2)c1O (stereo unspecified), the Potency was inconclusive: 25.1 µM [inhibitor, single point]. With Cc1cc(C)cc(-n2c(C)cc(/C=C3\C(=O)NC(=O)N(C)C3=O)c2C)c1 the Potency was “inactive”. In the case of COc1cc2c(c(OC)c1OC)-c1ccc(O)c(=O)cc1[C@@H](NC(C)=O)CC2, the Potency is reported as active: 11.2 µM. For CCOc1ccc(N2C(=O)NC(=O)/C(=C/c3cnc(SC)nc3)C2=O)cc1, the Potency was active: 35.5 µM. For Cc1cc(OCC(=O)Nc2cc(C)nn2-c2ccccn2)c2c3c(c(=O)oc2c1)CCC3, the Potency was inconclusive: 31.6 µM [inhibitor, single point]. With CN1C(=O)/C(=C/c2ccc(N3CCCCCC3)o2)C(=O)NC1=S the Potency was “inactive”. With Cc1c2cnn(CC(=O)N3CCC4(CC3)OCCO4)c(=O)c2c(C)n1Cc1ccc(F)cc1 the Potency was inconclusive: 39.8 µM [inhibitor, single point]. For Cc1cc(C(=O)CN2CCCC2)c(C)n1-c1ccc(F)cc1, the Potency was inconclusive: 31.6 µM [inhibitor, single point]. With CC/C(=N\Nc1cccc2ccccc12)c1c(O)[nH]c(=O)[nH]c1=O the Potency was inconclusive: 28.2 µM [inhibitor, partial curve]. In the case of Cc1ccc(C(=O)N[C@@H](C)CN2C3=NC[C@H](Cc4ccccc4)N3C[C@H]2Cc2ccc(O)cc2)cc1Br, the Potency is reported as “inactive”. With CCCCNC(=O)c1c(N)n(Cc2ccc3c(c2)OCO3)c2nc3ccccc3nc12 the Potency was inconclusive: 3.55 µM [inhibitor, full curve]. For C=CCn1c(C2CC2)n[nH]c1=S, the Potency was inconclusive: 8.91 µM [inhibitor, single point]. For Cc1nnc2ccc(-c3cccc(C(F)(F)F)c3)nn12, the Potency was inconclusive: 31.6 µM [inhibitor, partial curve]. Cc1ccc(N2C(=O)NC(=O)/C(=C/C=C/c3ccco3)C2=O)cc1 was tested, and the Potency was “inactive”. In the case of CC1CCC/C=C/C2CC(O)CC2C(O)/C=C/C(=O)O1 (stereo unspecified), the Potency is reported as “inactive”. In the case of CN(C)C(=O)Oc1ccc(-c2cn3cc(Cl)ccc3n2)cc1, the Potency is reported as inconclusive: 25.1 µM [inhibitor, partial curve]. For CN(C)c1cc(N)c2c(n1)CCC2 (tested in a mixture with another compound), the Potency was inconclusive: 28.2 µM [inhibitor, partial curve]. For CCOC(=O)C(C)Oc1cc(C)cc2oc(=O)c3c(c12)CCCC3 (stereo unspecified), the Potency was active: 12.6 µM. With Cc1cccc(CN2CCCC(C(=O)c3ccc4c(c3)OCO4)C2)n1 (stereo unspecified) the Potency was inconclusive: 31.6 µM [inhibitor, partial curve]. For N#CC(C#N)=Cc1ccc(C=C(C#N)C#N)cc1, the Potency was active: 15.8 µM. For CCN1CCN(Cc2ccc(C)cc2)CC1, the Potency was “inactive”. In the case of O=C(N/N=C/c1c(O)n(Cc2ccccc2)c(=O)[nH]c1=O)c1ccncc1, the Potency is reported as active: 20 µM. With Cc1ccc(OCC(=O)N2CCN(CC3CC4C=CC3C4)CC2)cc1 (stereo unspecified) the Potency was inconclusive: 25.1 µM [inhibitor, single point]. In the case of Cn1c(=O)c2c(nc(N/N=C/c3c(O)n(C4CCCCC4)c(=S)[nH]c3=O)n2C)n(C)c1=O, the Potency is reported as inconclusive: 25.1 µM [inhibitor, single point]. In the case of O=C1NC(=O)C(=O)C(=O)N1, the Potency is reported as inconclusive: 2.82 µM [inhibitor, single point]. In the case of Cc1ccnc(NS(=O)(=O)c2ccc(N=Cc3c(O)n(C)c(=O)n(C)c3=O)cc2)n1, the Potency is reported as inconclusive: 39.8 µM [inhibitor, single point]. With CC(=NCCN1CCOCC1)c1c(O)n(Cc2ccccc2)c(=O)[nH]c1=O the Potency was inconclusive: 28.2 µM [inhibitor, single point]. CN(C)C(=S)SSC(=S)N(C)C was tested, and the Potency was active: 25.1 µM. CC(=O)N1N=C(c2cccnc2)OC1c1ccccc1Cl (stereo unspecified) was tested, and the Potency was inconclusive: 35.5 µM [inhibitor, single point]. CCOC(=O)c1c(N)n(CCN2CCOCC2)c2nc3ccccc3nc12 was tested, and the Potency was inconclusive: 28.2 µM [inhibitor, partial curve]. COC(=O)C1C2c3ccccc3OC1(C)N=c1s/c(=C/c3cnn(C)c3)c(=O)n12 (stereo unspecified) was tested, and the Potency was “inactive”.
